According to the RNAGym collection of RNA variant scans (doi:10.7554/elife.90254):
Read counts are not given, so values of variants with three or more changes are uncertain.

B1: LINE1-full (parent)
chain: UACGUAGGUGGUUUUCCCCUGAUAGUGCUAAGGGGGCCUGGAAGUUUGGACUGGGCAGAGCUCAACACAGCGUGGCAAAGUGGCUGUGGCUAGACUGCCUCUCUGGAUUCCUCGUCACUCAGCAGGGCAUCUCUGAGAGAAAUGCC

Variants of: B1
Assay: self-cleavage, relative activity (ratio to wild type); higher = more cleavage; in vitro, sequencing; the parent is a self-cleaving ribozyme

Row | Variant | self-cleavage
1 | UACGUAGGUGGUCUUCCUCUGAUAGUGCUAAGGGGGCCUGGAAGUUUGGACUGGGCAGAGCUCAGCACAGCGUGGCAAAGUGGCUGUGGCUAGACUGCCUCUCUGGAUUCCUCGUCACUCAGCAGGGCAUCUCUGAGAGAAAUGCC [U13C C18U A65G] | 0.3
2 | UACGUAGGUGGUCUUCCCCUGAUAGUGCUAAGGGGGCCUGGAAGUUUGGACUGGGCAGAGCUUAACACAGCGUGGCAAAGUGGCUGUGGCUAGACUGCCUCUCUGGAUCCCUCGUCACUCAGCAGGGCAUCUCUGAGAGAAAUGCC [U13C C63U U109C] | 0.29
3 | UACGUAGGUGGUCUUCCCUUGAUAGUGCUAAGGGGGCCUGGAAGUUUGGACUGGGCAGAGCUCAACACAGCGUGGCAAAGUGGCUGUGGCUAGACUGCCUCUCUGGAUUCCUCAUCACUCAGCAGGGCAUCCCUGAGAGAAAUGCC [U13C C19U G114A U132C] | 1.46
4 | UACGUAGGUGGUCUUCCCCUGAUAGUGCUAAGGGGGGCUGGAAGUUUGGACUGGGCAGAGCUCAACACAGCGUGGCAAAGUGGCUGUGGCUAGACUGCCUCUCUGGAUUCCUCGUCACUCAGCAGGGCAUCUCUGAGAGAAAUGCU [U13C C37G C146U] | 0.82
5 | UACGUAGGUGGUCUUCCCCUGAUAGUGCUAAGGGGGCCUGGAAGUUUGGACUGGGCAGAGCUCAACACAGCGUGGCAAAGUGGCUGUGGCUAGACUGCCUCUCUGGAUUCCUCGUCUCUCAGCAGGGCAUCUCCGAGAGAAGUGCC [U13C A117U U134C A142G] | 2.07
6 | UACGUAGGUGGUCUUCCCCUGAUAGUGAUAAGGGGGCCUGGAAGUUUGGACUGGGCAGAGCCCAACACAGCGUGGCAAAGUGGCCGUGGCUAGACUGCCUCUCUGGAUUCCUCGUCACUCAGCAGGGCAUCUCUGAGAGAAAUGCC [U13C C28A U62C U85C] | 0.12
7 | UACGUAGGUGGUCUUCCCCUGAUAGUGCUAAGGGGGCCUGGAAGUUUGGACUGGGCAGAGCUCAACACAGCGUGGUAAAGUGGCUGUGGCUAGACUGCCUCUCUGGAUUCCUCGUCACUCAGCAGGGCAUCUCUGAGAGAAGUGCC [U13C C76U A142G] | 2.56
8 | UACGUAGGUGGUCUUCCCCUGAUAGUGCUAAGGGGGCCUGGAAGUUUGGACUGGGCAGAGCUCAACACAGCGUGGCAAAGUGGCUGUGGCUGGACUGCCUCUCUAGAUUCCUCGUCACUCAGCAGGGCAUCUCUGAGAGAAAUGCC [U13C A92G G105A] | 0.04
9 | UACGUAGGUGGUCUUCCCCUGAUAGUGCUAAGGGGGCGUGGAAGUUUGGACUGGGCAGAGCACAACACAGCGUGGCAAGGUGGCUGUGGCUAGGCUGCCUCUCUGGAUUCCUCGUCACUCAGCAGGGCAUCUCUGAGAGAAAUGCC [U13C C38G U62A A79G A94G] | 0.17
10 | UACGUAGGUGGUCUUCCCCUGAUAGUGCUAAGGGGGCCUGGAAGUUUGGACUGGGCAGAGCUCAACACAGCGUGGCAAAGUGGCUGUGGCUAGACUGCCUCUCUGGAUUCCUAGUCACUCAGCAGGGCAUCUCUGGGAGAAAUGCC [U13C C113A A136G] | 0.93
11 | UACGUAGGUGGUCUUCCCCUGAUAGUGCUAAGGGGGCCUGGAAGUUUGGAUUGGGCAGAGCUCAACACAGCGUGGCAAAGUGGCCGUGGCUAGACUGCCUCUCUGGAUUCCUCGUCACUCAGCAGGGCAUCUCUGAGAGAAAUGCC [U13C C51U U85C] | 0.41
12 | UACGUAGGUGGUCUUCCCCUGAUAGUGCUAAGGGGGCCUGGAAGUUUGGACUGGGCAGAGCUCAACACAGCGUGGCAAAGUGGCUGUGGCUAGACUGCCUCUCUGGAUUCCUCGUCACUCAGAAGGGCUUCUCAGAGAGAAAUGCC [U13C C123A A129U U134A] | 0.81
13 | UACGUAGGUGGUCUUCCCCUAAUAGUGCUAAGGGUGCCUGGAAGUUUGGACUGGGCAGAGCUCAACACAGCGUGGCAAAGUGGCUGUGGCUAGACUGCCUCUCUGGAUUCCUCGUCACUCGGCAGGGCGUCUCUGAGAGAAAUGCC [U13C G21A G35U A121G A129G] | 0.71
14 | UACGUAGGUGGUCUUCACCUAAUAGUGCUAAGGGGGCCUGGAAGUUUGGACUGGGCAGAGCUCAACGCAGCGUGGUAAAGUGGCUGUGGCUAGACUGCCUCUCUGGAUUCCUCGUCACUCAGCAGGGCGUCUCUGAGAGGAAUGCC [U13C C17A G21A A67G C76U A129G A140G] | 0.55
15 | UACGUAGGUGGUCUUCCCCUGAUAGUGCUAAGGGGGCCUGGAAGUUUGGACUGGGCAGAGCUCAACAUAGCGUGGCAAAGUGGCUGUGGCUAGACUGCCUCUCUGGAUUCCUCGUCACUCAGCCGGGCAUCUCUGAGAGAAGUGCC [U13C C68U A124C A142G] | 0.27
16 | UACGUAGGUGGUCUUCCCCUGAUAGUGCUAAGGGGGCCUGGAAGUUUGGACUGGGCAGAGCUCAACACAGCGUGGCAAAGUGGCUGUGGCUGGACAGCCUCUCUGGAUUCCUCGUCACUCAGCAGGGCAUCUCUGAGAGAAAUGCC [U13C A92G U96A] | 0.31
17 | UACGUAGGUGGUCUUCCCCUGAUAGUGCUAAGGGGGACUGGAAGUUUGGACUGGGCAGAGCUCAACACAGCGAGGCGAAGUGGCUGUGGCUAGACUGCCUCUCUGGAUUCCUCGCCACUCAGCAGGGCAUCUCUGAGAGAAUUGCC [U13C C37A U73A A77G U115C A142U] | 1.24
18 | UACGUAGGUGGUCUUCUCCUGAUAGUGCUAAGGGGGCCAGGAAGUUUGGACUGGGCAGAGCCCAACACAGCGUGGCAAAGUGGCUGCGGCUAGACUGCCCCUCUGGAUUCCUCGUCACUCAGCAGGGCAUCUCUGAGAGAAAUGCC [U13C C17U U39A U62C U87C U100C] | 0
19 | UACGUAGGUGGUCUUCCCCUGAUAGUGAUAGGGGGGCCGGGAAGUUUGGACUGGGCAGAGCUCAACACAGCGUGGCAAAGUGGCUGUGGCUAGACUGCCUCUCUGGAUUCCUCGUCACUCAGCAGGGCAUCUCUGAGAGAAAUGCC [U13C C28A A31G U39G] | 1.07
20 | UACGUAGGUGGUCUUCGCCUGAUAGUGCUAAGGGGGCCUGGAAGUUUGGACUGGGCAGAGCUCAACACAGCGUGGCAAAGUGGCUGUGGCUUGACUGCCUCUCUGGAUUCCUCGUCACUCAGCAGGGCAUCUCUGAGAGAAAUGCC [U13C C17G A92U] | 0.92
